Among the data in PubChem BioAssay AID485344 (National Center for Advancing Translational Sciences (NCATS), 2010) are inhibition values, retold here.

Molecules are shown by their SMILES. Out of some 340,000 compounds screened, about 6,900 (2%) were called active. Rule as the data show it: active = inhibition above about 30%; inactive = below that, where a call was filed. The list shows a part of the results, in another mix than the full data. The source gives no active or inactive call for entries shown without one. A structure can be active in one record and inactive in another.

A word on the inhibition: it is the relative decrease from the control value, in per cent.

UniProt P14416, sequence (P14416 whole entry, looked up): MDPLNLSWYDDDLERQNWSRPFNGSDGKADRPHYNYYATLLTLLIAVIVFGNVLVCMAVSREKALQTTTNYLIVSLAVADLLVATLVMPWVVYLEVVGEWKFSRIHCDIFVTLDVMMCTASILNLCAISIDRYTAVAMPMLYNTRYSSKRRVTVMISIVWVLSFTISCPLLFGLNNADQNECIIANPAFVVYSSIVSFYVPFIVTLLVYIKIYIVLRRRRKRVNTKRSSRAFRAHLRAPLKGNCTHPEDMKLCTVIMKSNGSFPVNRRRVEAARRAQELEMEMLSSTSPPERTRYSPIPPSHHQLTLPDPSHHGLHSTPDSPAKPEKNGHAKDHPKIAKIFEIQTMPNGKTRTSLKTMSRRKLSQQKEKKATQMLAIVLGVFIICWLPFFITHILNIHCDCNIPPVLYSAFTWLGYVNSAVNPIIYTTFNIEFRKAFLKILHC

The assay deals with D(2) dopamine receptor (Homo sapiens) (UniProt P14416). Description: HTS Assay for Allosteric Antagonists of the Human D2 Dopamine Receptor: Primary Screen for Antagonists. Also: 0% is about no effect. Particulars: HEK293 TREx D2 cells, calcium flux, dopamine EC80; at 10 µM; stronger effect = higher value. The method in brief:
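Tetracycline-induced HEK293 TREx cells expressing D2 receptor forced-coupled to calcium signalling, loaded with no-wash calcium dye. Compounds added and calcium flux read 180 s, then dopamine added at EC80 and read a further 180 s.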
(Calcium flux is commonly read through the fluorescence of an indicator in the cells.)
`Cc1c(-c2nsc(NC(=O)c3cccs3)n2)nnn1-c1ccc(Br)cc1`: the inhibition came out at 8.52%.

As for `CC(C)(C)c1ccc(C(=O)NC2CCN(Cc3ccccc3)CC2)cc1`, the inhibition is active: 53.9%.

For `O=C(CCn1ccc2cc(S(=O)(=O)N3CCCC3)ccc21)NCc1cccc(Br)c1`, the inhibition was -2.37%.

As for `Cc1ccc(C)c(Nc2nn3c(=O)c4ccc(C(=O)NC5CCCCC5)cc4nc3s2)c1`, the inhibition was 4.83%.

In the case of `Cc1ccc(C(=O)NCC(c2cccnc2)N2CCc3ccccc32)cc1C` (configuration not stated), the inhibition is -24.9%.

As for `Cc1ccc(-c2nc3ncccc3o2)cc1NC(=O)c1cccc(OCC(C)C)c1`, the inhibition was -3.43%.

For the molecule `O=C(O)c1ccc(-n2nnnc2SCc2ccccc2F)cc1`, the inhibition was active: 37.2%.

Take `CN(C)S(=O)(=O)c1ccc2c(c1)nnn2CCNC(=O)Nc1ccc(Br)cc1`: the inhibition worked out at 12.3%.

On to `O=C(C1CC1)N1CCN(c2nc3ccc(F)cc3s2)CC1`, for which the inhibition came to 3.05%.

Regarding `Cn1c(=O)c2c(nc(NCc3ccccc3)n2Cc2ccccc2Cl)n(C)c1=O`, the inhibition was found to be 2.84%.

As to `CCCCOc1ccc(CNC(=O)c2cnc3sc(N4CCOCC4)nn3c2=O)cc1`, the inhibition came to 1.67%.

For `COc1cccc(OCc2nc3ccccc3n2CCOc2ccccc2C)c1`, the inhibition was -8.84%.

For `COc1ccc(S(=O)(=O)NCC(c2ccco2)N2CCOCC2)cc1` (configuration not stated), the inhibition was -16%.

Consider `CCOC(=O)C1CCCN(CCCc2ccccc2)C1` (configuration not stated), for which the inhibition was active: 70%.

Turning to `Cc1cc(C)cc(NC(=O)CSc2oc(-c3cccs3)nc2S(=O)(=O)c2ccccc2)c1`, the inhibition is -0.926%.

Regarding `Cn1c(=O)cc(OCC(=O)NCCCN2CCN(c3cccc(Cl)c3)CC2)c2ccccc21`, the inhibition is active: 77.2%.

Regarding `CC1CCN(S(=O)(=O)c2cc3c4c(c2)CC(=O)N4CCC3)CC1`, the inhibition was -20.1%.

With `Fc1ccc(-c2cc(-c3ccccc3)c3c(n2)-c2cc(F)ccc2OC3)cc1`, the inhibition stood at 10%.

`Cc1ccc(-c2c(C)n3c4c(=O)n(C)c(=O)n(C)c4nc3n2-c2cccc(O)c2)cc1`: the inhibition is -21.7%.

On to `COc1ccc(NC(=O)CSc2nc3cc(OC)c(OC)cc3c3nc(-c4ccccc4)nn23)cc1Cl`, for which the inhibition is -6.89%.

`COc1ccccc1CNCC(=O)Nc1cc(S(=O)(=O)N2CCOCC2)ccc1Cl`: the inhibition was active: 84.8%.

As for `COc1cc(-c2ccno2)ccc1S(=O)(=O)N1CCN(c2ccccc2F)CC1`, the inhibition amounted to 5.19%.

As for `COC(=O)c1ccc(NC(=O)C(=O)NCCc2sc(-c3cccc(F)c3)nc2C)cc1`, the inhibition is -13.1%.

With `COc1ccc(CC(=O)NCc2nc3cccnc3n2Cc2ccc(C)cc2)cc1`, the inhibition was -22.8%.

For `CCOC(=O)c1cc(S(=O)(=O)N2CCN(c3cc(C)ccc3C)CC2)[nH]n1`, the inhibition was -6.75%.

For the molecule `COc1ccccc1Nc1nn2c(=O)c3ccc(C(=O)N4CCCCC4)cc3nc2s1`, the inhibition stood at 14.6%.

Consider `Cc1cccc(C)c1N1CC(c2nc3ccccc3n2CC(=O)OC(C)C)CC1=O` (configuration not stated), for which the inhibition was -5.86%.

In the case of `CC(=O)Nc1cccc(Oc2ncnc3scc(-c4ccc(C)cc4)c23)c1`, the inhibition was active: 33.9%.

With `Cc1ccc(OCC(=O)Nc2ccccc2C(=O)OCc2cc(=O)n3ccsc3n2)cc1C`, the inhibition is -4.68%.

Consider `COc1ccc(CCNC(=O)CN(c2cc(C(F)(F)F)ccc2Cl)S(C)(=O)=O)cc1`, for which the inhibition was -5.92%.

As for `Cc1ccccc1NC(=S)N1CCCC(c2nc3ccccc3[nH]2)C1` (configuration not stated), the inhibition is active: 32%.

Consider `COC(=O)c1sc(NC(=O)c2cc3nc(-c4ccc(Br)cc4)cc(C(F)(F)F)n3n2)c(C(=O)OC)c1C`, for which the inhibition was 6.77%.

For the molecule `CCc1ccc(NC(=O)c2cc3nc(-c4ccc(C)cc4)cc(C(F)(F)F)n3n2)cc1`, the inhibition turned out to be 12.2%.

On to `CCOC(=O)c1c(NC(=O)Cc2coc3cc(C)ccc23)sc2c1CCCC2`, for which the inhibition is -3.12%.

For the molecule `O=C(O)Cc1sc(Nc2ccccc2Cl)nc1-c1ccccc1`, the inhibition is -4.2%.

Consider `COc1ccccc1N1CCN(S(=O)(=O)c2c(C)sc3ncn(CC(=O)Nc4ccc(C(F)(F)F)cc4)c(=O)c23)CC1`, for which the inhibition was 6.47%.

With `CC(=O)c1ccc(NC(=O)C2CCCN(S(=O)(=O)c3ccc4c(c3)CCCN4C(C)=O)C2)cc1` (configuration not stated), the inhibition is -0.676%.

As to `CCCCn1c(=O)c(C(=O)OCC)c(O)c2ccccc21`, the inhibition was active: 38.4%.

Take `Cc1cc(C)c(NC(=O)CCCN2C(=O)COc3ccc(C)cc32)c(C)c1`: the inhibition came out at 0.939%.

With `CC(=O)c1cccc(OCC(O)CNCCOc2ccc(C)cc2)c1` (configuration not stated), the inhibition is active: 42.5%.

As to `Cc1cc2ncn(/N=C/c3ccc4c(c3)OCO4)c2cc1C`, the inhibition is active: 89%.

In the case of `COc1ccc(-c2c(C)nn3c4c(cnc23)C(=O)CC(c2ccccc2)C4)cc1` (configuration not stated), the inhibition was determined as 9.18%.

For the molecule `O=C(CS(=O)(=O)c1cccc2nsnc12)NCc1ccc(Cl)cc1`, the inhibition is -6%.

In the case of `CC(NC(=O)c1ccc(Nc2nc3ccccc3n3nnnc23)cc1)c1ccccc1` (configuration not stated), the inhibition is 6.65%.

In the case of `CCOc1cc(CNc2ncnc3nc[nH]c23)ccc1OC`, the inhibition was active: 37.6%.

As to `CCCCN(C)CCCNC(=O)CN1C(=O)COc2ccc(S(=O)(=O)N3CCOCC3)cc21`, the inhibition is -4.37%.

Consider `Cc1nc2nc(-c3ccc(Cl)cc3Cl)nn2c(C)c1CCC(=O)Nc1ccc(F)cc1`, for which the inhibition is -3.74%.

With `COc1cccc(N2CC(NC(=O)c3ccc4c(c3)OCO4)CC2=O)c1` (configuration not stated), the inhibition was -1.43%.

In the case of `CCC1CN(C(=O)N2CCC(C(=O)Nc3cc(C)ccc3C)CC2)c2ccccc2O1` (configuration not stated), the inhibition was -14.7%.

Take `COc1cc(C2c3c(oc4ccccc4c3=O)C(=O)N2c2nncs2)cc(OC)c1OC` (configuration not stated): the inhibition worked out at 3.33%.

As for `COc1ccc(C(CC(=O)Nc2cccc(C)c2C)N2Cc3ccccc3C2=O)cc1` (configuration not stated), the inhibition is -0.747%.

`Cc1cccc(-c2cc(NC(=O)C(C)(C)C)n(-c3ccccc3)n2)c1`: the inhibition is 4.62%.

Consider `CC1CCN(CCc2nc3cc(NC(=O)COc4ccccc4)ccc3n2C)CC1`, for which the inhibition is active: 59.1%.

With `O=C(COc1ccc(F)cc1)Nc1ccccc1C(=O)OCc1cc(=O)n2nc(C3CC3)sc2n1`, the inhibition was -23.2%.

In the case of `Cc1nc2nc(SCc3ccc(F)cc3Cl)nn2c(C)c1Cc1ccccc1`, the inhibition was 14.3%.

On to `CCOc1ccc(-c2cn3c(n2)sc2cc(C(=O)NCCCc4ccccc4)ccc23)cc1`, for which the inhibition is -9.54%.

In the case of `CC(C)(C)c1ccc(C(=O)N2CC(=O)Nc3ccc(F)cc3C2c2ccc(F)cc2)cc1` (configuration not stated), the inhibition is -17.4%.

In the case of `COc1cc(C2c3c(oc4ccccc4c3=O)C(=O)N2Cc2ccccc2Cl)ccc1O` (configuration not stated), the inhibition was determined as 4.05%.

For `COc1cc(CCC(=O)NCc2ccc3c(c2)CCN3C(=O)c2cccc(C)c2)cc(OC)c1OC`, the inhibition is -28%.

Regarding `O=C(N/N=C/c1ccccc1OC(F)F)C1=COCCO1`, the inhibition is active: 32.5%.

In the case of `Cc1ccc(Nc2cc(C(=O)NC3CCCC3)c3ccccc3n2)c(C)c1`, the inhibition is 4.86%.

Turning to `COc1ccc(NC(=O)CSC2=Nc3ccccc3C3=NC(Cc4ccccc4)C(=O)N23)cc1Cl` (configuration not stated), the inhibition was -15.2%.

As for `CN(Cc1ccccc1)C(=O)Cn1ncc2c3ccccc3n(Cc3cccc(Cl)c3)c2c1=O`, the inhibition was 4.93%.

On to `Cc1ccc(Cl)cc1Nc1sc(C(=O)c2ccccc2)c(N)c1S(=O)(=O)c1ccccc1`, for which the inhibition is -2.93%.

Regarding `CCN(CC)S(=O)(=O)c1ccc2c(c1)nc(SCC(=O)NC1CC1)n2-c1ccccc1OC`, the inhibition was active: 50.5%.

Turning to `Cc1ccccc1Cn1c(Oc2ccccc2F)nc2c1c(=O)n(C)c(=O)n2C`, the inhibition is 14.2%.

On to `Cc1ccc(NC(=O)Cn2c(=O)c(C(F)(F)F)nc3ccccc32)c(C)c1`, for which the inhibition worked out at 5.28%.

As for `CCCCN(CC)CCNC(=O)Cn1c(=O)c2cccn2c2cccnc21`, the inhibition came out at 4.03%.

In the case of `Cc1ccc(N2CCN(C(=O)C3CCC(CNS(=O)(=O)c4ccc(Br)s4)CC3)CC2C)cc1` (configuration not stated), the inhibition turned out to be 2.46%.

Regarding `COc1ccc2cc(CNc3ccccc3)c(=O)n(CC(=O)Nc3ccc(C)cc3C)c2c1`, the inhibition was -6.64%.

Regarding `Cc1ccc2nc(SCc3nc(-c4ccccc4C)no3)[nH]c2c1`, the inhibition was determined as 5.8%.

As to `Cc1ccc(C(=O)CCNc2ccccc2)o1`, the inhibition was active: 32.5%.

Take `Cc1ccc2c(CC(=O)Nc3c(C(=O)Nc4cccc(Cl)c4)oc4ccccc34)coc2c1C`: the inhibition was -8.96%.

As for `COc1cccc(CNC(=O)c2cc3c(=O)n(C)c4ccccc4c3n2C)c1`, the inhibition amounted to 12.4%.

On to `COc1ccccc1CCNC(=O)CCc1c(C)c2cc3c(C)coc3cc2oc1=O`, for which the inhibition amounted to 5.93%.

`Cc1ccc(C)c(N2CCN(C(=O)c3cccn3-c3nnc(N4CCCCC4)s3)CC2)c1`: the inhibition is 5.96%.

As for `Nc1c2c(nc3ccc(Br)cc13)N(C1CCCCC1)CC2`, the inhibition is active: 74.2%.

Turning to `COCCn1c(C)cc(O)c(C(c2ccccc2OC)N2CCCCC2)c1=O` (configuration not stated), the inhibition is 6.99%.

Consider `COc1ccc(C(CC(=O)Nc2ccc(OC)c(OC)c2)N2Cc3ccccc3C2=O)cc1` (configuration not stated), for which the inhibition was -7%.

In the case of `COc1ccc(OC)c(CCNC(=O)c2ccc3[nH]c(C)c(C)c3c2)c1`, the inhibition was found to be 16.8%.

As for `Cc1nn2c(C(F)(F)F)cc(-c3ccc(OC(C)C)cc3)nc2c1C#N`, the inhibition was 7.97%.

`Cc1ccccc1OCC(=O)Nc1ccccc1C(=O)OCc1cc(=O)n2c(C)csc2n1`: the inhibition was 7.11%.

Regarding `CCOc1ccccc1CNC(=O)c1[nH]c2ccccc2c1Sc1ccccc1`, the inhibition was -2.8%.

In the case of `CCc1nc2ccc(C(=O)NCCc3ccc(OC)c(OC)c3)cc2nc1CC`, the inhibition came out at 2.07%.

Turning to `O=C(c1ccco1)N1CCN(c2nc3ccc(Cl)cc3s2)CC1`, the inhibition is -24%.

Regarding `O=S(=O)(c1ccc(-c2cc(C(F)(F)F)on2)s1)N1CCN(c2cccc(Cl)c2)CC1`, the inhibition turned out to be 3.49%.

`CCN1CCN(CCCNC(=O)c2cc3c(s2)-c2c(C)cccc2OC3)CC1`: the inhibition turned out to be 3.51%.

Turning to `CCN(CC)CCCNC(=O)CCc1c(C)n(CC)c2cc(-c3ccccc3OC)nn2c1=O`, the inhibition was -8.31%.

As for `Cc1ncc(COC(=O)C(C)C)c2cc(C(=O)Nc3ccccc3C(F)(F)F)c(=O)oc12`, the inhibition is 9.68%.

With `CCCCn1c(CNC(=O)C23CC4CC(CC(C4)C2)C3)nnc1SCC(=O)Nc1ccccc1`, the inhibition was -2.82%.

For `CCOc1ccc(CCNc2ncnc3onc(-c4ccc(F)cc4)c23)cc1OCC`, the inhibition is -1.71%.

On to `CN1c2ccc(Cl)cc2-c2nc(SCC(=O)Nc3cc(F)ccc3F)ncc2S1(=O)=O`, for which the inhibition came to 1.88%.

As to `COC(=O)NNC(=O)C1CCC(C)CC1` (configuration not stated), the inhibition was determined as 3.04%.

As to `Cc1cccc(N2C(=O)CS(=O)(=O)C23C(=O)N(C)c2ccccc23)c1` (configuration not stated), the inhibition was -22.4%.

As to `NC(=Nc1ccccc1)Nc1ccccc1`, the inhibition is active: 55.8%.

`CCNC(=O)c1cnc2sc(N3CCC(C)CC3)nn2c1=O`: the inhibition was determined as 7.32%.

As to `Cc1ccc2c(c1)N(C(=O)N1CCC(C(=O)NCCC3=CCCCC3)CC1)CC(C)O2` (configuration not stated), the inhibition was -16%.
